This assay concerns the target T1, human Hsp90β (heat shock protein of 90 kDa), full-length (human, UniProt P08238).
T1 construct: Human Hsp90β, full length; N-terminal (Hsp90N), charged linker, middle (Hsp90M) and C-terminal (Hsp90C) domains; For NMR: selective [1H-13C] labelling of isoleucine δ1 methyl groups in fully deuterated media; TEV cleavage is told for Aha1 only; also called full-length Hsp90; Hsp90 dimer; source: E. coli BL21(DE3), purified (Ni2+-NTA, Superdex 200 SEC)
The experiment in a line: NMR titration; methyl-TROSY of 80-100 uM isoleucine-labelled Hsp90 or Hsp90NM, Aha1 added (up to molar ratio 1:4); no nucleotide; 25°C; 50 mM sodium phosphate/300 mM NaCl/1 mM DTT pH 7.2, 100% D2O. As to conditions: both partners purified.

T1 sequence (P08238 whole entry): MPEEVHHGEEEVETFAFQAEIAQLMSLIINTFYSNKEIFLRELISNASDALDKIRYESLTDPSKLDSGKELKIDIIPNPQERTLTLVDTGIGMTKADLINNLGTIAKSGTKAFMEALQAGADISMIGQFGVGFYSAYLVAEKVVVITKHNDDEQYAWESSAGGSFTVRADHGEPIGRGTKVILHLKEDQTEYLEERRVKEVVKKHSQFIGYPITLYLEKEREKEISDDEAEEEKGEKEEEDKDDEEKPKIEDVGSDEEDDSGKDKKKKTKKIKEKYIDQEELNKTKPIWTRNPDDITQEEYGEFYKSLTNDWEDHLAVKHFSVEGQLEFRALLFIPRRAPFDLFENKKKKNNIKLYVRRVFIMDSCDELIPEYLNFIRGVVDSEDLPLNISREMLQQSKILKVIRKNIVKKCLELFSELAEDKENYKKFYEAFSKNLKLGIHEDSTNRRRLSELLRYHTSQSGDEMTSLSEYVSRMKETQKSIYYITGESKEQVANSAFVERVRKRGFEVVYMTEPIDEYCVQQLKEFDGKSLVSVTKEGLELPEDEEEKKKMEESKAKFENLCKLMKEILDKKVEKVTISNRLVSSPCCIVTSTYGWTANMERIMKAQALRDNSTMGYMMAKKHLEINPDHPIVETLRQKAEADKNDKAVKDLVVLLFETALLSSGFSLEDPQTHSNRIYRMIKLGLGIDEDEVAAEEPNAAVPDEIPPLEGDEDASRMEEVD

B1: E67K-Aha1 (natural protein)
chain: not shown
notes: Human Aha1 with the mutation E67K; also called E67K variant; mutant protein E67K-Aha1
As for B1, the binding result is on record as “binds”.

These data come from article PMC6699087, “Dynamic Aha1 co‐chaperone binding to human Hsp90” (Protein Science : A Publication of the Protein Society, 2019).
